# Measured values as given in PubChem BioAssay (NCI).
# Some compounds were tested as several samples or in several runs, with calls that do not always agree.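 Single-concentration screen, 48 h exposure, 96-well plates. Endpoint: percent growth. Below 10 = active.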 Not every entry of the source has a single result; some have several. This list holds those alone. An entry can have further records. This drug was run again and again over the years, at its own concentration, as given; one value stands for one run. Counts like (3×) count equal records among those shown.
# Columns and labels:
# NCI-H23 lung = assay: NCI-60 one-dose screen, 48 h (100 = growth as untreated, 0 = no growth, -100 = all killed); conditions: 2.5 mM
# NCI-H226 lung = assay: as above; conditions: 2.5 mM
compound,measurement,setting,value
O=c1[nH]cc(F)c(=O)[nH]1,growth,NCI-H23 lung; runs of 1991,"active: -9.18, -18.1, -9.76, -10.1, -0.655% and inactive: 27, 17.9 (2×), 12.9, 41.9, 10.5, 24.4, 39.2, 19.6, 33, 13.9, 14.9, 16, 22.8%"
same,growth,NCI-H23 lung; runs of 1992,"inactive: 16.4 (2×), 20.7 (2×), 29.2, 24.1, 22.7, 33.5, 25.4, 16.8 (3×), 33.3, 18.8, 29, 23.5, 20.9 (3×), 16.3 (2×), 19.8, 16.7 (2×), 19.9 (2×), 13.3, 21.6, 23.3 (2×), 14.7, 42.9, 17.5 (3×), 22.6, 18.2, 19.4, 10.9, 14.5, 12.7, 24.6, 36, 28.4, 11.4, 14.8 (2×), 93.9, 13, 42, 17.3, 27.4, 27, 13.8 (2×), 39.6, 19, 22.4, 27.8, 15, 23.7, 16.1, 20.8, 11.9, 18.6, 15.6, 10.1, 34.4, 32.2, 16.6, 24.8 (2×), 17.1, 10.3, 22.3, 19.2, 26.1, 31.6, 17.2, 19.1% and active: 8.38, -30.1, -8.86, 0.277, -5.17, 4.12, -4.96, -26.6, 6.93, 7.72, 6.58, -9.69, -25.9, 8.29, -32.2, -7.07, 5.64, -21.8, -20.3, -24.7, 6.8, 9.41, -42.2, -36.6, 1.48, 5.89, 1.82, -10, 7.6, -22 (2×), 1.07, -7.28, 3.43, -24.3, -30, -26.1, 3.58, -20, 9.77, 6.42, -27.6, 0.645, 5.81, -15.6%"
same,growth,NCI-H23 lung; runs of 1993,"active: 5.1, 9.57, -9.52, -7.88, -19.4, -18, 3.96, 6.64, 3.66, -7.01% and inactive: 18, 28, 15.1, 76.5, 40.3, 10.1, 15.8, 21.4 (2×), 14.3, 23.4, 25.6 (2×), 24.1, 30.9, 25.9 (2×), 14.9, 13.6, 21.7, 27.5, 34.3, 26.3, 23.3, 20.5, 55.1, 20.9, 68.4, 31.1, 22.6, 73.8, 39.6, 40.2, 34.8, 16.4, 29.1, 12.9, 27.2, 36.5, 35.7%"
same,growth,NCI-H23 lung; runs of 1994,"inactive: 41.1, 31.9, 31.1, 37.6, 28.1, 26.7, 12.3, 17.6, 17.3, 24.5, 24, 27.6, 24.4, 27, 48.7, 30.7, 51.3, 28.6, 24.9, 10.9, 38.7, 36.3, 14.8, 35.4, 27.8, 24.2, 26.8, 28.5% and active: 7.26, 6.92, 8.28, 8.32, 9.24%"
same,growth,NCI-H23 lung; runs of 1995,"inactive: 63.2, 30.5, 17.3, 24, 12, 25.2, 34.2, 47.7, 42, 33.5, 26.1, 34.3, 15.5, 27.2, 11.4, 17.8, 11.3, 24.3, 26.4, 18.1, 26.9, 22.7, 36.2, 21.3, 25.9, 16, 30, 23.4, 32.6, 22.4, 21.1% and active: 0, -2.47, 0.49, 0.0676, -8.71, 5.62, -19.1, 0.133, -9.87%"
same,growth,NCI-H23 lung; runs of 1996,"inactive: 34.6, 12.4, 22.5, 29.8, 16.3, 25.3, 21.5, 36.2, 11.3, 17.3, 15.1 (2×), 17.6, 32.8, 32.2, 16.4, 14.2, 23.4 (2×), 28.6, 10.3, 10.5, 34.5, 28.1, 27.7, 33.6, 29.7, 20.7, 25.7, 37.5, 32.1, 17.8, 37.1, 15, 13.5, 18.5, 19.9, 50.1, 37.7, 17.4, 14.5, 32, 31.3, 13.1, 11.6, 23.3, 16.9% and active: -11.3, 7.99, 9.93, 7.73, -2.58, -40.5, 7.38, 2, 9.66, 9.75%"
same,growth,NCI-H23 lung; runs of 1997,"inactive: 19, 21.2, 24.4, 12, 38.4, 32.3, 13.8, 18, 24.8, 19.4, 11.6, 26.4, 23.6, 44.2, 20.7, 44, 19.2, 25.2, 17.6, 24.5, 12.9, 33.5, 23.4, 18.2, 26.7, 22.8, 20, 23.2, 15.9, 18.8, 27.1, 24.2, 40.5, 33.1, 20.4, 23, 15.5% and active: 2.32, -29.1, -15.4, -3.58, -5.11%"
same,growth,NCI-H23 lung; runs of 1998,"inactive: 22.4 (2×), 14.4, 34.5, 22.3, 29.9, 22.2, 30.7, 25.3, 16 (2×), 22.9 (2×), 40.5, 12.9, 30.9, 22.6 (2×), 19.7, 32.9, 20.7, 31.3, 17.7, 58.7% and active: 9.6%, -25.6%, -2.78%"
same,growth,NCI-H23 lung; runs of 1999,"inactive: 26.5%, 14%, 18.4% and active: -19.2, 9.8, -1.71, -68, -41.2, -50, 5.88, 8.47, -53.4, -42.3, -30.7, -29.6%"
same,growth,NCI-H23 lung; runs of 2000,"active: -25.2, 8.86, -46.5, -0.481%"
same,growth,NCI-H226 lung; runs of 1991,"active: 6.47, -13.1, -8.27, 9.04% and inactive: 51.5, 34.3, 37.2, 44.6, 37.3, 28.6, 39.1, 40.5, 39.5, 41.4, 38.4, 23.1, 17.9, 48.7, 29.2%"
same,growth,NCI-H226 lung; runs of 1992,"inactive: 45.2, 43.4, 60.8, 25.7, 23.6, 31.1, 61.5, 24.2 (2×), 29.2, 40.2, 45.6, 23.1, 36, 46.8, 16, 49.5, 45.4, 39.5 (3×), 46, 41.3, 54.4, 12.6, 16.9, 15.8, 23.9, 45.7, 20.9, 53.9, 26, 26.4, 39.7, 33.1, 38.4, 12.5, 19.6, 95.4, 65.1, 25.3, 103, 30, 17, 44.8, 18.3, 44.5, 62.2, 41.2, 38.2 (2×), 29.8, 33.8, 24.3, 59.3, 32.6, 22.2, 33.3, 23.3, 16.1, 38.8, 31.5, 39.2, 16.3, 41, 44.9, 76.3, 31.7% and active: -7.83, 6.3, -2.02, -9.44, -12.9, -0.5, -7.64, -5.45, -2, -5.85, 4.37, -4.13, -19.9, -21.4, 9.78, -14.2, -23.8, -37.5, -24.7, -13.5, -47.6, -9.99, -11.8, -11 (2×), -21, -2.05, 5.79, 3.73, -46.2, -8.38, -1.99, -4.22, 3.04, -7.11, -10.6%"
same,growth,NCI-H226 lung; runs of 1993,"inactive: 58.1, 50.6, 63.5, 92, 36.7, 78.8, 54.5 (2×), 60, 50.2, 35.3, 72.2, 44.2, 37.9, 35.8, 50, 47.1, 33.9, 22.6, 47.7, 43.5, 58, 35.4, 29.9, 48.4, 65.5, 63, 68.1, 75, 11.4, 33.5, 35, 39.7, 58.8, 59.3, 61.4, 10.6, 86% and active: -7.27, -12.7, 1.89, -3.74, 3.97, 6.44%"
same,growth,NCI-H226 lung; runs of 1994,"inactive: 51.5, 45.8, 32.3, 10.9, 34.5, 12.4, 14.9, 37, 50.3, 48.3, 28.5, 45.2, 30.9, 48.8, 61.5, 58.6, 81, 34.6, 28.8, 28.3, 21.3, 11.5, 41.8, 74.8, 57.8, 29.1, 14, 56.8, 30% and active: -1.7, 4.6, 4.86, 8.37%"
same,growth,NCI-H226 lung; runs of 1995,"inactive: 42.1, 37.9, 40.6, 48.4 (2×), 35.6, 21.1, 59.5, 24.1, 31.2, 26.7, 21.5, 19.1, 26.2, 30.8, 42.3, 35, 39.3, 59.7, 24.5, 28.7, 33.7, 19.9, 38.4, 87.2, 12, 21.2, 33, 51.8% and active: 4.26, 7.43, 6.51, 4.09, -0.614%"
